The record followed here is patent US20110064751A1 (Hoffmann-La Roche, published 2011).

The target of test [1] is T1, IL-2 receptor (IL-2R) β/γ heterodimer on effector cells (NK92 cells; human PBMC subsets) (UniProt P14784 27-551; P31785 23-369).
T1 sequence (looked up) 1: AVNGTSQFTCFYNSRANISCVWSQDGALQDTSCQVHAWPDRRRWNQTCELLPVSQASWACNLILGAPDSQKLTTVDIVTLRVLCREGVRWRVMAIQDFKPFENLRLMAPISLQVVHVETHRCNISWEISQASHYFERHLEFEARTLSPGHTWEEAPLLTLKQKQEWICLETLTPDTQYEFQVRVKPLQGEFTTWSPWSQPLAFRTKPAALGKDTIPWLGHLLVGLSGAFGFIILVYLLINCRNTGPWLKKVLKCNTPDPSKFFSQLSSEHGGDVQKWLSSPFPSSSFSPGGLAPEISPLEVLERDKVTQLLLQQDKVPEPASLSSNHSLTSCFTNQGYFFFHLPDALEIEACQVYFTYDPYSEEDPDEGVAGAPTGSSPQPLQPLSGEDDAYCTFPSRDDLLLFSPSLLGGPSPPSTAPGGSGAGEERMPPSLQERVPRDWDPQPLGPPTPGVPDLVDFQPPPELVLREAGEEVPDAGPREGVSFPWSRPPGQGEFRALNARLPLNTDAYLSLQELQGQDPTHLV
T1 sequence (looked up) 2: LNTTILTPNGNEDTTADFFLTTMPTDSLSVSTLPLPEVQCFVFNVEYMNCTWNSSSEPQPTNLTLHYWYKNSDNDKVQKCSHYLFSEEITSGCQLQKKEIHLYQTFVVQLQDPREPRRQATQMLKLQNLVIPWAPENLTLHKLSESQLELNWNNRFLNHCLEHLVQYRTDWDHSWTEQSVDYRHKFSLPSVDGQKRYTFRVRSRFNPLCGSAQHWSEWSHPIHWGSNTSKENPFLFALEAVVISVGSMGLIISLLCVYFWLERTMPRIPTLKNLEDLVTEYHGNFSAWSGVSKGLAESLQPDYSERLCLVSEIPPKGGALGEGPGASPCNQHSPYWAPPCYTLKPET
The experiment in a line: cell-based or functional assay.

Test [2] deals with T2, heterodimeric human IL-2 receptor beta/gamma Fc fusion (knob-into-hole construct) (human).
T2 construct: also called IL-2R b/g; hu IL-2R bg
Description: SPR (Biacore), receptor immobilized, construct as analyte. On the technique in general: In SPR one partner is held on a chip, and binding of the other changes the refractive index at the surface.

In test [3] the target is T3, murine chimeric TNC A2 fusion protein (TNC fn5-A1-A2-A3 domains, A1 and A2 murine) (human; murine, UniProt P24821 984-1071; Q80YX1 1072-1253; P24821 1254-1344, limits assumed, biotinylated).
T3 construct: domain: fn5;domain: A1-A2;domain: A3; Expressed in E. coli, immobilized on a streptavidin chip; also called Murine TNC
T3 sequence (looked up): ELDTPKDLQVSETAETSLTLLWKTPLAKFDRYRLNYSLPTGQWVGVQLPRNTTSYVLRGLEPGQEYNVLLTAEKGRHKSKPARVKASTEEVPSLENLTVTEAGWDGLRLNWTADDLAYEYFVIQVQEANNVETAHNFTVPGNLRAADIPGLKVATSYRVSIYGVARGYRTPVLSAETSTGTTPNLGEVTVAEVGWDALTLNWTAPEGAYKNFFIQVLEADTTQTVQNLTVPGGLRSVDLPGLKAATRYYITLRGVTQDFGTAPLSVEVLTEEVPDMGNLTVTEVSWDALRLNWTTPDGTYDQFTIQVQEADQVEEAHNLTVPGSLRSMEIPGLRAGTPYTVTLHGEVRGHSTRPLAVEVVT
The experiment in a line: SPR (Biacore), biotinylated antigen on streptavidin chip, construct as analyte, avidity, 1:1 fit.

The target in test [4] is T4, Cynomolgus chimeric TNC A2 fusion protein (TNC fn5-A1-A2-A3 domains, A1 and A2 cynomolgus) (human; cynomolgus, UniProt P24821 984-1071; P24821 1254-1344, biotinylated).
T4 construct: domain: fn5;domain: A1-A2;domain: A3; Expressed in E. coli, immobilized on a streptavidin chip; also called Cynomolgus TNC
The description is as above.

Test [5] addresses T5, human chimeric TNC A2 fusion protein (TNC fn5-A1-A2-A3 domains, A1 and A2 human) (human, UniProt P24821 984-1344, limits assumed, biotinylated).
T5 construct: domain: fn5-A1-A2-A3; Immobilized on a streptavidin chip; also called Human TNC
T5 sequence (looked up): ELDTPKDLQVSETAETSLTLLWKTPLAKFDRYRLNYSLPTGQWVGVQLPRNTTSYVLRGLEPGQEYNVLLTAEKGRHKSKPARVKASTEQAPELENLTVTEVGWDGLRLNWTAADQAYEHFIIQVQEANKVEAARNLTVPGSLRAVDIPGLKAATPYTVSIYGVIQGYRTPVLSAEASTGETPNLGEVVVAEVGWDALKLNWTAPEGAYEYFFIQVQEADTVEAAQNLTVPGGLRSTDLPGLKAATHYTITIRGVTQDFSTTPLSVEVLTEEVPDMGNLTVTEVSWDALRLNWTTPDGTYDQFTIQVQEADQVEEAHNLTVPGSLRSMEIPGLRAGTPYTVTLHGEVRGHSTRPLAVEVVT
Described as above.

B1: 2B10 Fab-IL2-Fab immunoconjugate (other)
chain: QVQLVQSGAEVKKPGSSVKVSCKASGGTFSSYAISWVRQAPGQGLEWMGGIIPIFGTANYAQKFQGRVTITADKSTSTAYMELSSLRSEDTAVYYCARLYGYAYYGAFDYWGQGTTVTVSSASTKGPSVFPLAPSSKSTSGGTAALGCLVKDYFPEPVTVSWNSGALTSGVHTFPAVLQSSGLYSLSSVVTVPSSSLGTQTYICNVNHKPSNTKVDKKVEPKSCDSGGGGSGGGGSGGGG[sequence of about 150 residues omitted]SGGGGSGGGGSGGGGQVQLVQSGAEVKKPGSSVKVSCKASGGTFSSYAISWVRQAPGQGLEWMGGIIPIFGTANYAQKFQGRVTITADKSTSTAYMELSSLRSEDTAVYYCARLYGYAYYGAFDYWGQGTTVTVSSASTKGPSVFPLAPSSKSTSGGTAALGCLVKDYFPEPVTVSWNSGALTSGVHTFPAVLQSSGLYSLSSVVTVPSSSLGTQTYICNVNHKPSNTKVDKKVEPKSCD
light: DIQMTQSPSSLSASVGDRVTITCRASQGIRNDLGWYQQKPGKAPKRLIYAASSLQSGVPSRFSGSGSGTEFTLTISSLQPEDFATYYCLQNGLQPATFGQGTKVEIKRTVAAPSVFIFPPSDEQLKSGTASVVCLLNNFYPREAKVQWKVDNALQSGNSQESVTEQDSKDSTYSLSSTLTLSKADYEKHKVYACEVTHQGLSSPVTKSFNRGEC
notes: also called Fab-IL2-Fab 2B10; SH2B10
Take B1: the “IFN-γ release of NK92 cells, construct in solution” value in test [1] was ≥ 10 fold, against IL-2 (Proleukin). Also, in test [1], the “induction of proliferation of NK92 cells (CellTiter Glo), construct bound to coated antigen” value was ≥ 10 fold, against IL-2 (Proleukin). The Kd in test [2] came to 2.7 nM; in test [3] it was 0.77 nM; in test [4] it was 0.12 nM; in test [5], 0.12 nM.
